Source: the supplement of paper PMC12217912
Some of the results follow. The full chains were built here from the parent and the listed change. Inactive controls read about 0.05.

B1: TEV protease; numbered along this chain (parent)
chain: MGESLFKGPRDYNPISSSICHLTNESDGHTTSLYGIGFGPFIITNKHLFRRNNGTLVVQSLHGVFKVKDTTTLQQHLVDGRDMIIIRMPKDFPPFPQKLKFREPQREERICLVTTNFQTKSMSSMVSDTSCTFPSGDGIFWKHWIQTKDGQCGSPLVSTRDGFIVGIHSASNFTNTNNYFTSVPKNFMELLTNQEAQQWVSGWRLNADSVLWGGHKVFMVKPEEPFQPVKEATQL

Variants of: B1
Assay: raw area under fraction-flipped curve 0-4 h after induction (AUC4h, not background-subtracted), DNA-recorder readout of cleavage of the substrate (dimensionless); higher = more cleavage of the substrate by the protease variant
Conditions: temperature: 34 °C; time window: 0-4 h after rhamnose induction
Description: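 In vivo DNA recorder in E. coli TOP10(DE3) ΔrhaA at 34 °C. Each TEVp single-site mutant (parent TEVp 0) is paired with a single-site variant of the 7-mer TEVs (canonical ENLYFQ|S). The substrate sits between flexible linkers in a Bxb1-sfGFP-TEVs-SsrA fusion, so cleavage stabilises Bxb1 and speeds flipping of a recombination array, read by NGS. The value is the raw area under the fraction-flipped curve over 0-4 h after rhamnose induction (AUC4h), with ≥20 reads per time point. It is not background-subtracted; inactive controls average about 0.047.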
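Note: Bxb1 expression induced with 0.2% (w/v) L-rhamnose at OD600 near 0.5, cultures sampled hourly, flipped fraction per protease–substrate barcode pair counted by paired-end Illumina sequencing.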

MGESLFKGPRDYNPISSSICHLTNESDGHTTSLYGIGFGPFIITNKHLFRRNNGTLVVQSLHGVFKVKDTTTLQQHLVDGRDMIIIRMPKDFPPFPQWLKFREPQREERICLVTTNFQTKSMSSMVSDTSCTFPSGDGIFWKHWIQTKDGQCGSPLVSTRDGFIVGIHSASNFTNTNNYFTSVPKNFMELLTNQEAQQWVSGWRLNADSVLWGGHKVFMVKPEEPFQPVKEATQL [K98W]
area with substrate ENLYFAS: 0.0551 | area with substrate ENLYFES: 0.0691 | area with substrate ENLYFGS: 0.0538 | area with substrate ENLYFIS: 0.0994 | area with substrate ENLYFKS: 0.0615 | area with substrate ENLYFMS: 0.0641 | area with substrate ENLYFNS: 0.0708 | area with substrate ENLYFPS: 0.0577 | area with substrate ENLYFRS: 0.0593 | area with substrate ENLYFSS: 0.0642 | area with substrate ENLYFTS: 0.0547 | area with substrate ENLYFVS: 0.0501 | area with substrate ENLYFWS: 0.0503 | area with substrate ENLYFYS: 0.0603

MGESLFKGPRDYNPISSSICHLTNESDGHTTSLYGIGFGPFIITNKHLFRRNNGTLVVQSLHGVFKVKDTTTLQQHLVDGRDMIIIRMPKDFPPFPQKLKNREPQREERICLVTTNFQTKSMSSMVSDTSCTFPSGDGIFWKHWIQTKDGQCGSPLVSTRDGFIVGIHSASNFTNTNNYFTSVPKNFMELLTNQEAQQWVSGWRLNADSVLWGGHKVFMVKPEEPFQPVKEATQL [F101N]
area with substrate ENLYFAS: 0.0457 | area with substrate ENLYFDS: 0.042 | area with substrate ENLYFES: 0.0436 | area with substrate ENLYFHS: 0.0509 | area with substrate ENLYFIS: 0.0571 | area with substrate ENLYFKS: 0.0829 | area with substrate ENLYFLS: 0.051 | area with substrate ENLYFMS: 0.0494 | area with substrate ENLYFNS: 0.0365 | area with substrate ENLYFPS: 0.0541 | area with substrate ENLYFSS: 0.0485 | area with substrate ENLYFTS: 0.0438 | area with substrate ENLYFVS: 0.0388

MGESLFKGPRDYNPISSSICHLTNESDGHTTSLYGIGFGPFIITNKHLFRRNNGTLVVQSLHGVFKVKDTTTLQQHLVDGRDMIIIRMPKDFPPFPQKLKWREPQREERICLVTTNFQTKSMSSMVSDTSCTFPSGDGIFWKHWIQTKDGQCGSPLVSTRDGFIVGIHSASNFTNTNNYFTSVPKNFMELLTNQEAQQWVSGWRLNADSVLWGGHKVFMVKPEEPFQPVKEATQL [F101W]
area with substrate ENLYFAS: 0.0678 | area with substrate ENLYFCS: 0.0658 | area with substrate ENLYFFS: 0.0436 | area with substrate ENLYFIS: 0.0679 | area with substrate ENLYFKS: 0.0456 | area with substrate ENLYFMS: 0.0575 | area with substrate ENLYFNS: 0.0727 | area with substrate ENLYFPS: 0.0723 | area with substrate ENLYFRS: 0.059 | area with substrate ENLYFTS: 0.0611 | area with substrate ENLYFWS: 0.0547 | area with substrate ENLYFYS: 0.0608

MGESLFKGPRDYNPISSSICHLTNESDGHTTSLYGIGFGPFIITNKHLFRRNNGTLVVQSLHGVFKVKDTTTLQQHLVDGRDMIIIRMPKDFPPFPQKLKFGEPQREERICLVTTNFQTKSMSSMVSDTSCTFPSGDGIFWKHWIQTKDGQCGSPLVSTRDGFIVGIHSASNFTNTNNYFTSVPKNFMELLTNQEAQQWVSGWRLNADSVLWGGHKVFMVKPEEPFQPVKEATQL [R102G]
area with substrate ENLYFAS: 0.0572 | area with substrate ENLYFCS: 0.0336 | area with substrate ENLYFDS: 0.0508 | area with substrate ENLYFFS: 0.0427 | area with substrate ENLYFHS: 0.042 | area with substrate ENLYFIS: 0.0478 | area with substrate ENLYFKS: 0.0406 | area with substrate ENLYFMS: 0.0508 | area with substrate ENLYFNS: 0.0642 | area with substrate ENLYFPS: 0.0447 | area with substrate ENLYFRS: 0.0521 | area with substrate ENLYFSS: 0.0486 | area with substrate ENLYFTS: 0.0466 | area with substrate ENLYFVS: 0.0562

MGESLFKGPRDYNPISSSICHLTNESDGHTTSLYGIGFGPFIITNKHLFRRNNGTLVVQSLHGVFKVKDTTTLQQHLVDGRDMIIIRMPKDFPPFPQKLKFIEPQREERICLVTTNFQTKSMSSMVSDTSCTFPSGDGIFWKHWIQTKDGQCGSPLVSTRDGFIVGIHSASNFTNTNNYFTSVPKNFMELLTNQEAQQWVSGWRLNADSVLWGGHKVFMVKPEEPFQPVKEATQL [R102I]
area with substrate ENLYFAS: 0.0167 | area with substrate ENLYFCS: 0.0485 | area with substrate ENLYFDS: 0.0485 | area with substrate ENLYFES: 0.0358 | area with substrate ENLYFFS: 0.0513 | area with substrate ENLYFGS: 0.0377 | area with substrate ENLYFHS: 0.0341 | area with substrate ENLYFIS: 0.051 | area with substrate ENLYFKS: 0.0397 | area with substrate ENLYFMS: 0.0422 | area with substrate ENLYFNS: 0.0442 | area with substrate ENLYFPS: 0.0492 | area with substrate ENLYFRS: 0.0491 | area with substrate ENLYFTS: 0.0441 | area with substrate ENLYFVS: 0.0549 | area with substrate ENLYFWS: 0.0534 | area with substrate ENLYFYS: 0.0465

MGESLFKGPRDYNPISSSICHLTNESDGHTTSLYGIGFGPFIITNKHLFRRNNGTLVVQSLHGVFKVKDTTTLQQHLVDGRDMIIIRMPKDFPPFPQKLKFYEPQREERICLVTTNFQTKSMSSMVSDTSCTFPSGDGIFWKHWIQTKDGQCGSPLVSTRDGFIVGIHSASNFTNTNNYFTSVPKNFMELLTNQEAQQWVSGWRLNADSVLWGGHKVFMVKPEEPFQPVKEATQL [R102Y]
area with substrate ENLYFAS: 0.0489 | area with substrate ENLYFFS: 0.0361 | area with substrate ENLYFIS: 0.0363 | area with substrate ENLYFLS: 0.0425 | area with substrate ENLYFPS: 0.0442 | area with substrate ENLYFRS: 0.0561 | area with substrate ENLYFVS: 0.0423 | area with substrate ENLYFYS: 0.0257

MGESLFKGPRDYNPISSSICHLTNESDGHTTSLYGIGFGPFIITNKHLFRRNNGTLVVQSLHGVFKVKDTTTLQQHLVDGRDMIIIRMPKDFPPFPQKLKFRECQREERICLVTTNFQTKSMSSMVSDTSCTFPSGDGIFWKHWIQTKDGQCGSPLVSTRDGFIVGIHSASNFTNTNNYFTSVPKNFMELLTNQEAQQWVSGWRLNADSVLWGGHKVFMVKPEEPFQPVKEATQL [P104C]
area with substrate ENLYFAS: 0.0554 | area with substrate ENLYFCS: 0.0695 | area with substrate ENLYFDS: 0.064 | area with substrate ENLYFES: 0.0648 | area with substrate ENLYFFS: 0.0683 | area with substrate ENLYFGS: 0.0603 | area with substrate ENLYFHS: 0.0547 | area with substrate ENLYFIS: 0.0558 | area with substrate ENLYFKS: 0.0593 | area with substrate ENLYFMS: 0.0572 | area with substrate ENLYFNS: 0.0611 | area with substrate ENLYFPS: 0.0634 | area with substrate ENLYFRS: 0.0606 | area with substrate ENLYFSS: 0.0595 | area with substrate ENLYFTS: 0.0057 | area with substrate ENLYFYS: 0.0666

MGESLFKGPRDYNPISSSICHLTNESDGHTTSLYGIGFGPFIITNKHLFRRNNGTLVVQSLHGVFKVKDTTTLQQHLVDGRDMIIIRMPKDFPPFPQKLKFREHQREERICLVTTNFQTKSMSSMVSDTSCTFPSGDGIFWKHWIQTKDGQCGSPLVSTRDGFIVGIHSASNFTNTNNYFTSVPKNFMELLTNQEAQQWVSGWRLNADSVLWGGHKVFMVKPEEPFQPVKEATQL [P104H]
area with substrate ENLYFAS: 0.0453 | area with substrate ENLYFCS: 0.0707 | area with substrate ENLYFES: 0.0428 | area with substrate ENLYFFS: 0.0581 | area with substrate ENLYFGS: 0.0335 | area with substrate ENLYFIS: 0.0459 | area with substrate ENLYFKS: 0.0497 | area with substrate ENLYFNS: 0.0546 | area with substrate ENLYFPS: 0.0541 | area with substrate ENLYFRS: 0.0431 | area with substrate ENLYFTS: 0.0573

MGESLFKGPRDYNPISSSICHLTNESDGHTTSLYGIGFGPFIITNKHLFRRNNGTLVVQSLHGVFKVKDTTTLQQHLVDGRDMIIIRMPKDFPPFPQKLKFRERQREERICLVTTNFQTKSMSSMVSDTSCTFPSGDGIFWKHWIQTKDGQCGSPLVSTRDGFIVGIHSASNFTNTNNYFTSVPKNFMELLTNQEAQQWVSGWRLNADSVLWGGHKVFMVKPEEPFQPVKEATQL [P104R]
area with substrate ENLYFAS: 0.0497 | area with substrate ENLYFCS: 0.0534 | area with substrate ENLYFES: 0.0537 | area with substrate ENLYFFS: 0.0716 | area with substrate ENLYFGS: 0.0618 | area with substrate ENLYFIS: 0.0629 | area with substrate ENLYFKS: 0.0583 | area with substrate ENLYFLS: 0.0395 | area with substrate ENLYFMS: 0.0557 | area with substrate ENLYFPS: 0.0566 | area with substrate ENLYFRS: 0.041 | area with substrate ENLYFSS: 0.0435 | area with substrate ENLYFTS: 0.0475 | area with substrate ENLYFVS: 0.054 | area with substrate ENLYFYS: 0.0506
